Experimental findings from article PMC4336329 (PLoS ONE, 2015) are described below.

The structures appear in SMILES notation. Hit rate of the full screen: of about 310,000 compounds, about 2,200 (0.71%) showed an effect of 50% or more. The effect is printed as a negative number. This is one part of the list.

Sequence of human ether-à-go-go-related gene (hERG) potassium channel (Q12809 whole entry, looked up): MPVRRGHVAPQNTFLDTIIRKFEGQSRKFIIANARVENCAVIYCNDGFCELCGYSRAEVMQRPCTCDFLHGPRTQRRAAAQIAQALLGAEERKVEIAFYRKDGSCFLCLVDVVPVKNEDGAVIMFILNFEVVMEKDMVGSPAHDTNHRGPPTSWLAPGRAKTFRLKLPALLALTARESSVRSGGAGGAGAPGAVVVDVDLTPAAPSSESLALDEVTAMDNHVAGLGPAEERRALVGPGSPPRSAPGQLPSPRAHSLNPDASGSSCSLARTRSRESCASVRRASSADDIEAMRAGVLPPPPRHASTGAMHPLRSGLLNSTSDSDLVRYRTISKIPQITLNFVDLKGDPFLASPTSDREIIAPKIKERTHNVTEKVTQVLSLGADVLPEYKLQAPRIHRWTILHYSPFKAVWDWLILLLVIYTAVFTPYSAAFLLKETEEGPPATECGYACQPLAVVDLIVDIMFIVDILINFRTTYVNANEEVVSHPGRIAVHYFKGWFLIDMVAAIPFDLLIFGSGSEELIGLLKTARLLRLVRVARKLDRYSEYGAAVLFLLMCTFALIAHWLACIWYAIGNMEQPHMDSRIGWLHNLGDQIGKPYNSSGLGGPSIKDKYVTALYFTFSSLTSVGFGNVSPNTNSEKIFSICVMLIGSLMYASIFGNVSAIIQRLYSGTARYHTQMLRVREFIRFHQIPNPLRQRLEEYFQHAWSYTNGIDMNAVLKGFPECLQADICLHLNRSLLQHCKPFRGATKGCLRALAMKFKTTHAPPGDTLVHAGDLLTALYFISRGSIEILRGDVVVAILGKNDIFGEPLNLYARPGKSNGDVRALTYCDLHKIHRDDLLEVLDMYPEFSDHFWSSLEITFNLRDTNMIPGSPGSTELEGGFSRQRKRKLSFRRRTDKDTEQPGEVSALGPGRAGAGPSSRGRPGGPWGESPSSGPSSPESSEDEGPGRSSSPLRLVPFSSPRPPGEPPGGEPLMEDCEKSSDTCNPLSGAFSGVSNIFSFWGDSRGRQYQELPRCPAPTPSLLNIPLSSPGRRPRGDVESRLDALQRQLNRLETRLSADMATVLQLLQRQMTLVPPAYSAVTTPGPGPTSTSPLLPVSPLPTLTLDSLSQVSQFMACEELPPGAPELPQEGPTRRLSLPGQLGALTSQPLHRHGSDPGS

This experiment addresses human ether-à-go-go-related gene (hERG) potassium channel (human, UniProt Q12809). Briefly: primary screen, population patch clamp on CHO cells stably expressing hERG.
For the compound `O=C(NNC(=O)c1csc(-c2cnccc2C(F)(F)F)n1)c1ccc(C(F)(F)F)cc1`, the “hERG current change (%, negative = inhibition) at 1uM” value was found to be 10.6%. Consider `Cc1ccc(S(=O)(=O)NCCC(=O)OCC(=O)Nc2cccc(S(=O)(=O)NC3=NCCCCC3)c2)cc1`, for which the “hERG current change (%, negative = inhibition) at 1uM” value is given as 4.89%. Take `CCSc1cc(C2C(C#N)=C(N)Oc3n[nH]c(C)c32)c(C)o1` (centres unmarked): the “hERG current change (%, negative = inhibition) at 1uM” value stood at 12.5%. For the compound `CCN1CCN(c2ccc(NC(=O)c3ccco3)cc2Cl)CC1`, the “hERG current change (%, negative = inhibition) at 1uM” value was found to be 10.8%.

`CSCc1cc(N(C)c2ccccc2)nc(-c2ccccn2)n1`: the “hERG current change (%, negative = inhibition) at 1uM” value was 11.8%. Turning to `CSc1nc2ccc(NC(=O)C3=NN(c4ccccc4)C(=O)CC3)cc2s1`, the “hERG current change (%, negative = inhibition) at 1uM” value came to 0.549%. For `CCOC(=O)n1c(=O)n(C)c2ccc(Cl)cc21`, the “hERG current change (%, negative = inhibition) at 1uM” value worked out at 17.5%. The value for `CCN1CCN(CC(O)COCC2COc3ccccc3O2)CC1.Cl` (centres unmarked) was 2.05%. The value for `C#CCOCCOCCOCCNc1nc(N2CCN(C(=O)Cn3cc(CCC[NH+]=C(N)N)nn3)CC2)nc(N2CCN(C(=O)[C@H]([C@@H](C)CC)n3cc(CCC(=O)O)nn3)CC2)n1.[Cl-]` was 11.2%; that for `COc1cc(/C(C)=N/NC(=O)Cc2c(C)[nH][nH]c2=O)ccc1O` was 1.11%. As to `O=C(CN1C(=O)C2C3C=CC(C3)C2C1=O)Nc1nc2ccccc2[nH]1` (centres unmarked), the “hERG current change (%, negative = inhibition) at 1uM” value is 10.1%.

For the compound `O=C(CN1C(=O)c2ccc([N+](=O)[O-])cc2C1=O)NCCC1=CCCCC1`, the “hERG current change (%, negative = inhibition) at 1uM” value is on record as 13.2%.

Consider `COc1ccc(CCNc2ncnc3c2c(C)c(C)n3CCO)cc1OC`, for which the “hERG current change (%, negative = inhibition) at 1uM” value was found to be 4.93%.

On to `O=C(CCCNS(=O)(=O)c1ccccc1)NCc1ccco1`, for which the “hERG current change (%, negative = inhibition) at 1uM” value is listed as -8.91%.

For the compound `Cc1ccc(-c2cc3nc(C)cc(C)n3n2)cc1`, the “hERG current change (%, negative = inhibition) at 1uM” value was found to be 12.8%. Consider `COc1ccc(C(=O)NC2(C(F)(F)F)C(=O)Nc3c2c(=O)[nH]c(=O)n3CCc2ccc(OC)c(OC)c2)cc1` (centres unmarked), for which the “hERG current change (%, negative = inhibition) at 1uM” value turned out to be 1.11%. As for `Cc1[nH]n(-c2ccccc2)c(=O)c1N=Nc1cccc(Cl)c1`, the “hERG current change (%, negative = inhibition) at 1uM” value is listed as 13%. For `CC(=O)Nc1ccccc1NC(=O)C/C(C)=N/NC(=O)C(=O)N1CCCCC1`, the “hERG current change (%, negative = inhibition) at 1uM” value turned out to be 8.56%. For `O=C(Nc1ccccn1)c1sc2cccc(F)c2c1Cl`, the “hERG current change (%, negative = inhibition) at 1uM” value is 9.82%. `CC(OC(=O)c1cccnc1)C(=O)NCc1ccc2c(c1)OCO2` (centres unmarked): the “hERG current change (%, negative = inhibition) at 1uM” value came to 0.275%.

Regarding `O=C(COC(=O)c1ccccc1-c1nc2ccccc2s1)Nc1ccccc1C(F)(F)F`, the “hERG current change (%, negative = inhibition) at 1uM” value was found to be 10.4%. In the case of `CCCNC(=O)Nc1cccc(NC(C)=O)c1`, the “hERG current change (%, negative = inhibition) at 1uM” value came to 6.79%. Regarding `COc1ccc(C(OCC(O)CN2CCC(O)CC2)c2ccc(OC)cc2)cc1` (centres unmarked), the “hERG current change (%, negative = inhibition) at 1uM” value was -28.6%. Regarding `Cc1ccc2c(c1)NC(=O)C(CC(=O)Nc1ccc(Br)c(C)c1)O2` (centres unmarked), the “hERG current change (%, negative = inhibition) at 1uM” value is 12.5%. Turning to `CC(C)NC(=O)CSc1nnc(-c2ccc(S(=O)(=O)N3CCCC3)cc2)n1CC1CCCO1` (centres unmarked), the “hERG current change (%, negative = inhibition) at 1uM” value was determined as 7.15%.

`CCc1n(CC(O)COCC2CC=CCC2)c2ccccc2[n+]1C.[I-]` (centres unmarked): the “hERG current change (%, negative = inhibition) at 1uM” value was determined as 3.15%. For `CC1=C(C(=O)OCc2ccccc2)C(c2ccccc2)NC(=O)N1` (centres unmarked), the “hERG current change (%, negative = inhibition) at 1uM” value was determined as 19.5%.

Regarding `CN(C(=O)COC(=O)c1ccc2c(=O)n3c(nc2c1)CCC3)c1ccccc1`, the “hERG current change (%, negative = inhibition) at 1uM” value stood at 10.2%. The value for `CCn1c(-c2csc(C(C)C)c2)n[nH]c1=S` was 15.1%; that for `NS(=O)(=O)c1ccc(NC(=O)COC(=O)COc2cccc(C(F)(F)F)c2)cc1` was 28.5%; that for `CCc1ccc(C(=O)Nc2cc3c(cc2Cl)OCCCO3)cc1` was 17.8%. Regarding `COc1cc(NC(=O)Cc2ccccc2)ccc1NC(=O)c1ccccc1`, the “hERG current change (%, negative = inhibition) at 1uM” value worked out at 14%. For the compound `O=C(CCCOc1ccccc1)N1CCN(c2ccc(F)cc2)CC1`, the “hERG current change (%, negative = inhibition) at 1uM” value is on record as -4.09%. As for `CC1(C)CC(=O)C2=C(C1)N(Cc1ccco1)C(=O)NC2(C(F)(F)F)C(F)(F)F`, the “hERG current change (%, negative = inhibition) at 1uM” value came to 18.8%. The value for `COc1ccccc1CNC(=O)CN(Cc1ccc(Cl)cc1)S(C)(=O)=O` was 0.297%; that for `Cc1cc(C)cc(NC(=S)N2CC(C)OC(C)C2)c1` (centres unmarked) was 17.6%; that for `CC1(C)C2CCC(C2)C1(C)NC(=O)CN1CCOCC1.Cl` (centres unmarked) was 7.37%. In the case of `CCc1cc(SC#N)cc(CC)c1NC(=O)CCl`, the “hERG current change (%, negative = inhibition) at 1uM” value is reported as 14.2%. Turning to `CCCCN(C(=O)CCC(=O)Nc1cc(C)on1)C(C(=O)NC1CCCC1)c1ccc(OC)cc1` (centres unmarked), the “hERG current change (%, negative = inhibition) at 1uM” value is recorded as 5.02%. Consider `COc1ccc(CCNC(=O)COc2ccc(S(=O)(=O)N3CCOCC3)cc2)cc1OC`, for which the “hERG current change (%, negative = inhibition) at 1uM” value was determined as 2.99%. `O=C(CSCc1cccc(F)c1)N1CCN(c2ccccc2)CC1`: the “hERG current change (%, negative = inhibition) at 1uM” value was -3.08%. The value for `CCN1CCCC1CNC(=O)c1cc2c(-c3cccc(OC)c3)nn(C)c2s1` (centres unmarked) was -8.51%; that for `O=C(NCCO)c1nsnc1NCCCl` was 5.83%; that for `COc1cc(OC)c(C(=O)NCC2CCCO2)cc1OC` (centres unmarked) was 15.8%.

As to `O=C1NCC(CN(c2ccccc2)c2ccccc2)O1` (centres unmarked), the “hERG current change (%, negative = inhibition) at 1uM” value is given as 4.03%. The figure for `O=C(Nc1cccnc1)/C(N=Nc1ccc(Cl)c(C(F)(F)F)c1)=C(\O)c1ccccc1` is 10.6%; for `CCOC(=O)N1CCN(C(=O)CSc2ccc(-c3ccc(OC)cc3)nn2)CC1` it is -0.399%; for `Cc1ccc(S(=O)(=O)N2CCC(C(=O)Nc3nnc(C4CCCC4)s3)CC2)cc1` it is 2.27%. As to `COCCN1C(=O)c2ccc(C(=O)Nc3nccs3)cc2C1=O`, the “hERG current change (%, negative = inhibition) at 1uM” value is 1.71%. As for `O=C(C1=COCCO1)N(Cc1nnc(-c2ccccc2Cl)o1)C1CC1`, the “hERG current change (%, negative = inhibition) at 1uM” value is 5.2%.

In the case of `COc1ccc(S(=O)(=O)N2CCN(C)CC2)cn1`, the “hERG current change (%, negative = inhibition) at 1uM” value came to 25.6%. `O=C(COc1cccc(-n2cnnn2)c1)N1CCOCC1`: the “hERG current change (%, negative = inhibition) at 1uM” value amounted to 3.34%. Regarding `CSc1ccccc1C(=O)NCc1ccc(S(N)(=O)=O)cc1`, the “hERG current change (%, negative = inhibition) at 1uM” value is given as 3.08%. `O=C(Nc1nc2ccc(F)cc2s1)c1cccc(S(=O)(=O)N2CCc3ccccc32)c1`: the “hERG current change (%, negative = inhibition) at 1uM” value is on record as 8.32%. As for `Cc1ccc(N(CC(=O)NC2CCCCC2)S(=O)(=O)c2cccs2)cc1`, the “hERG current change (%, negative = inhibition) at 1uM” value amounted to 4.9%. Consider `CCCCNC(=O)COC(=O)c1ccc(SC)cc1OC`, for which the “hERG current change (%, negative = inhibition) at 1uM” value was 22%.
